Test results taken from PubChem BioAssay AID662 (National Center for Advancing Translational Sciences (NCATS), 2007).
Screen size: about 71,000 compounds; about 1,800 (2.5%) were called active. The inconclusive results got no clear call from the source; some entries with a clear call stand among them for comparison. The call rests on the fitted dose curve; in most records, active means well fitted activation curve with a large enough effect in the signal ratio, with a control signal flat (not every such curve was filed as active); inconclusive means small, poorly fitted or top-dose-only effect, or effect the other way, or a change in a side signal; inactive means flat fitted curve, though single readings scatter; the % refers to the signal ratio. Potencies beside an inconclusive call are fits to weak or partial responses and may not hold up.
Potency means the concentration at half of the fitted maximal effect; tags describe the fitted curve by direction and shape.

Test: Cell signaling CRE-BLA (Fsk stim); on activity change, negative = inhibition: % of control where 0% means no effect
Conditions: CHO CRE-bla reporter (cAMP response element driving beta-lactamase), forskolin EC10, beta-lactamase ratio; activity change, negative = inhibition: at 38.2 µM (top of the series) unless noted
In short: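 Modulation of forskolin signalling: compounds in titration series added with EC10 NKH 477 to CHO cells carrying a CRE-driven beta-lactamase reporter, 3 h, 37C. CCF4 FRET ratio (460/530 nm, ex 405 nm) gives %activity and AC50.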
With Cc1cnc(C(=O)OCC(=O)N2c3ccccc3NC(=O)C2(C)C)cn1 the Potency was inconclusive: 3.16 µM [falling, single point].
In the case of Cc1cnc(C(=O)Nc2ccc(-n3cnnn3)cc2)cn1, the activity change, negative = inhibition is reported as “inactive”.
With COc1ccc(CNc2ncncc2-c2ccc(C(=O)N(C)C)cc2)c(OC)c1 the activity change, negative = inhibition was inconclusive: 18.5%.
In the case of O=C(CCCC(=O)N(CC(=O)NC1CCCCC1)Cc1ccc2c(c1)OCO2)Nc1ccccn1, the Potency is reported as inconclusive: 0.0794 µM [falling, full curve].
For Cc1nc(Cc2nnc(SCc3nc(N)nc(Nc4ccccc4C)n3)o2)cs1, the Potency was inconclusive: 7.94 µM [rising, partial curve].
For CCCCN(C)CCCNC(=O)CC1Oc2ccccc2NC1=O (configuration not stated), the activity change, negative = inhibition was “inactive”.
In the case of Cc1cc(-c2nnc3n2CCCCC3)c(C)n1-c1ccccc1, the activity change, negative = inhibition is reported as “inactive”.
For Cc1cc2ccccc2n1CCNC(=O)C1CC1, the Potency was active: 12.6 µM.
For CN(C)c1ccnc2sc3c(=O)n(Cc4ccccc4)cnc3c12, the Potency was inconclusive: 2.51 µM [falling, partial curve].
With O=C(Nc1nonc1NC(=O)C1CCCCC1)C1CCCCC1 the activity change, negative = inhibition was inconclusive: 23.1%.
For O=C(Nc1ccc(-c2nc3ncccc3o2)cc1)c1ccco1, the activity change, negative = inhibition was “inactive”.
With Cn1c(SCc2nnc(-c3ccc(F)cc3)o2)nnc1C1COc2ccccc2O1 (configuration not stated) the activity change, negative = inhibition was inconclusive: -20.1%.
With CCN1C(=O)/C(=C2/Sc3ccc(OC)cc3N2C)SC1=Nc1cccc(O)c1 the Potency was active: 2.51 µM.
With CCCC1C(C#N)=C(N)Oc2cc(C)n(C)c(=O)c21 (configuration not stated) the Potency was active: 12.6 µM.
For COc1ccccc1C1CC(=O)Nc2cc3c(cc21)OCCO3 (configuration not stated), the Potency was inconclusive: 25.1 µM [rising, single point].
In the case of CCCn1c(SCC(=O)Nc2ccc3c(c2)OCO3)nc2c1c(=O)n(C)c(=O)n2C, the Potency is reported as active: 2.51 µM.
With O=C(Nc1ccc(Cl)cc1)c1cc2nc(-c3ccco3)cc(C(F)(F)F)n2n1 the activity change, negative = inhibition was inconclusive: 5.56%.
For CC1CN(C(=O)C(C)N2C(=O)c3ccccc3C2=O)CC(C)O1 (configuration not stated), the activity change, negative = inhibition was inconclusive: 9.58%.
For COc1cc(OC)cc(C(=O)OCn2nnc3ccccc3c2=O)c1, the Potency was active: 12.6 µM.
For O=C(CSc1nc(-c2ccccc2)cs1)Nc1nccs1, the activity change, negative = inhibition was “inactive”.
For C/C(=C\c1ccco1)C1C(C#N)=C(N)OC2=C1C(=O)CC(C)(C)C2 (configuration not stated), the activity change, negative = inhibition was “inactive”.
With COc1cccc(-c2ccc3ncnc(NCc4ccc(OC)cc4OC)c3c2)c1 the Potency was active: 1.58 µM.
In the case of O=C(CCCc1ccccc1)NC1CCSC1=O (configuration not stated), the Potency is reported as inconclusive: 1 µM [rising, single point].
With CC1(C(=O)N(CC(=O)NC2CCCC2)Cc2ccco2)CC(=O)N=C2C=CC=CN21 (configuration not stated) the activity change, negative = inhibition was “inactive”.
For O=C(Nc1ccc(N2CCCC2)cc1)c1ccc(Br)o1, the activity change, negative = inhibition was inconclusive: -8.59% [at 7.6 µM].
With COCCNC(=O)CCn1nc(-c2ccc(Cl)cc2)ccc1=O the activity change, negative = inhibition was “inactive”.
In the case of COc1ccc(-n2c(Cc3cccn3C)nnc2SCC(=O)Nc2ccccc2C)cc1, the activity change, negative = inhibition is reported as “inactive”.
In the case of c1ccc2nc3[nH]cnc3nc2c1, the activity change, negative = inhibition is reported as “inactive”.
For C=C(C)C(=O)OCCCCCCCCCC, the activity change, negative = inhibition was “inactive”.
In the case of O=C(O)c1cccc(N2CCCC2)c1, the activity change, negative = inhibition is reported as “inactive”.
With CCn1nc(C)c(NC(=O)CSc2nnc(-c3ccco3)n2C)c1C the activity change, negative = inhibition was inconclusive: 7.57%.
In the case of Cc1cnc(CNc2ncnc3ccc(-c4ccccc4C(F)(F)F)cc23)cn1, the activity change, negative = inhibition is reported as inconclusive: 14.6%.
For O=C(Nn1c(=O)[nH]c2ccsc2c1=O)c1ccccc1, the Potency was inconclusive: 1.58 µM [falling, partial curve, poor fit].
With COc1ccc(-c2nnc3c4ccccc4c(C)nn23)cc1S(=O)(=O)N1CCN(CCO)CC1 the Potency was active: 10 µM.
In the case of Cc1nc2cnc(OCc3ccccc3)nc2n(CCc2ccccc2)c1=O, the Potency is reported as inconclusive: 10 µM [rising, partial curve].
For C/C(N)=C(/C#N)C(=O)CSc1nnnn1-c1ccc(C)cc1, the activity change, negative = inhibition was “inactive”.
For CC(C)(Oc1ccc(Cl)cc1)C(=O)O, the activity change, negative = inhibition was inconclusive: -16.7%.
With CC1(C)Cc2ccccc2C(N)=C1C#N the activity change, negative = inhibition was inconclusive: 17.6% [at 7.6 µM].
In the case of OCCOCCNc1ncnc2nc[nH]c12, the activity change, negative = inhibition is reported as “inactive”.
With CCOC(=O)C(Sc1nnc2c3ccccc3n(CC)c2n1)C(=O)OCC the Potency was inconclusive: 3.98 µM [rising, partial curve].
In the case of CCC(C)c1ccc2oc(-c3ccc(NC(=O)c4ncn[nH]4)cc3)nc2c1 (configuration not stated), the activity change, negative = inhibition is reported as inconclusive: 19.7% [cytotoxic].
For CN1CCc2ccccc2C1C1CCNCC1 (configuration not stated), the activity change, negative = inhibition was inconclusive: 16.1%.
For CCOC(=O)C1CCN(S(=O)(=O)c2ccc(C(=O)OC)cc2)CC1, the activity change, negative = inhibition was “inactive”.
For COC(=O)c1ccc(NCC(=O)c2ccccc2)cc1, the activity change, negative = inhibition was inconclusive: -21.7%.
For CCOc1ccc2cc(C#N)c(SCC(=O)NC(C)CC)nc2c1 (configuration not stated), the activity change, negative = inhibition was “inactive”.
With CCOC(=O)c1c(C)n(C)c2ccc(OCC(O)CN(CC)CC)cc12 (configuration not stated) the activity change, negative = inhibition was “inactive”.
For CCC(C)n1[nH]c(=O)c2c(C)cc(C)nc21 (configuration not stated), the Potency was inconclusive: 10 µM [rising, single point].
For CC(CN1CCOCC1)C(=O)O (configuration not stated), the Potency was inconclusive: 15.8 µM [falling, single point].
With CCOC(=O)CSc1nc2c(c(=O)[nH]c(=O)n2C)n1CCCc1ccccc1 the activity change, negative = inhibition was inconclusive: 8.84%.
In the case of CCn1c(SCC(=O)Nc2ccccc2C(=O)OC)nnc1-c1ccoc1C, the activity change, negative = inhibition is reported as inconclusive: 14.5%.
In the case of COC(=O)[C@H](C)NC(=O)NC1CCCc2ccccc21 (some centres not stated), the activity change, negative = inhibition is reported as inconclusive: 8.09%.
For CCOC(=O)c1oc2ccc(S(=O)(=O)Nc3ccc4c(c3)n(C)c(=O)n4C)cc2c1C, the Potency was inconclusive: 25.1 µM [rising, single point].
With O=C(CSc1nc2ccccc2c(=O)[nH]1)c1cccs1 the Potency was inconclusive: 12.6 µM [rising, partial curve].
With Cc1oc2ccc(OCC(N)=O)cc2c1C(=O)OC(C)C the Potency was inconclusive: 12.6 µM [rising, partial curve].
For COc1ccc(Cl)cc1NC(=O)CCn1cnc2ccccc2c1=O, the Potency was inconclusive: 12.6 µM [rising, single point].
With C=CCNC(=O)Nc1ccc(OCC)cc1 the activity change, negative = inhibition was “inactive”.
For COc1ccc(-n2c(=O)c(-c3ccc(F)cc3)nc3cnc(N4CCNCC4)nc32)cc1, the Potency was inconclusive: 2.51 µM [rising, full curve].
For CN(C)c1ncc2nc(-c3ccccc3)c(=O)n(Cc3cccs3)c2n1, the Potency was inconclusive: 2.51 µM [rising, full curve].
In the case of CC(C)CCNC(=O)CCn1nc(-c2ccccc2)ccc1=O, the activity change, negative = inhibition is reported as inconclusive: 12.9%.
With COC(=O)c1ccc(Nc2cc(C)nc3nc(C)nn23)cc1 the Potency was inconclusive: 10 µM [rising, partial curve].
In the case of CCOC(=O)CCCNC(=O)COc1ccccc1C#N, the Potency is reported as inconclusive: 5.01 µM [falling, single point].
With C=C1C(C(=O)N2CCN(C)CC2)C1C(=O)N1CCN(C)CC1 (configuration not stated) the activity change, negative = inhibition was inconclusive: 5.89%.
For COc1ccccc1N(CN1CCCC1=O)C(=O)COc1ccccc1, the activity change, negative = inhibition was “inactive”.
For Cc1ccc2[nH]c3c(=O)n(CCN4CCNCC4)cnc3c2c1, the activity change, negative = inhibition was “inactive”.
In the case of CC1CCCCN1c1nc(-c2ccncc2)nc2ccccc12 (configuration not stated), the Potency is reported as active: 7.94 µM.
For Cc1cc(C(=O)NCc2cccs2)n(-c2ccccc2)n1, the activity change, negative = inhibition was “inactive”.
In the case of COc1ccc(CCn2c(N)c(C#N)c3nc4ccccc4nc32)cc1OC, the Potency is reported as active: 15.8 µM.
In the case of CC(=O)Nc1ccc(NC(=O)Cn2cc3c(n2)CCC(C)C3)cc1 (configuration not stated), the activity change, negative = inhibition is reported as inconclusive: -13%.
For Cc1cc(C#N)c(C)n1-c1cc(C(F)(F)F)ccc1N1CCOCC1, the activity change, negative = inhibition was “inactive”.
For Cc1c(NC(=O)c2ccc(Cl)c(S(=O)(=O)N3CCOCC3)c2)c(=O)n(-c2ccccc2)n1C, the activity change, negative = inhibition was inconclusive: -3.54%.
In the case of Cn1c(C(=O)N2CCCC(C(=O)NCc3cccs3)C2)cc2sccc21 (configuration not stated), the activity change, negative = inhibition is reported as “inactive”.
In the case of CCOC(=O)C1=C(CN2CCC(C)CC2)NC(=O)NC1c1ccc(Cl)cc1 (configuration not stated), the Potency is reported as active: 12.6 µM.
In the case of CCCC(=O)Nc1sc(C(=O)OC)c(C)c1C(N)=O, the Potency is reported as inconclusive: 10 µM [rising, partial curve].
In the case of COc1ccccc1N1C(=O)CC(Sc2nccc(C)n2)C1=O (configuration not stated), the activity change, negative = inhibition is reported as “inactive”.
In the case of CCOC(=O)c1ccc(NC(=O)N2CCN(CCc3ccccc3)CC2)cc1, the activity change, negative = inhibition is reported as inconclusive: -4.44%.
With O=C(O)C1CCCCC1C(=O)NCCCc1ccccc1 (configuration not stated) the activity change, negative = inhibition was inconclusive: -15%.
For COc1cccc(-c2nc(CSCC(=O)N3CCc4ccccc43)c(C)o2)c1, the Potency was inconclusive: 12.6 µM [rising, single point].
With Cc1cc(C)nc(SCC(=O)Nc2ncc3c(n2)CCCC3=O)n1 the Potency was inconclusive: 10 µM [rising, single point].
In the case of COc1ccc(Oc2ncc3nc(-c4ccc(F)cc4)c(=O)n(C[C@H]4CCCO4)c3n2)cc1, the activity change, negative = inhibition is reported as inconclusive: 18.1%.
In the case of COc1ccc(S(=O)(=O)N(Cc2cc3ccc(OC)cc3[nH]c2=O)CC2COCCO2)cc1 (configuration not stated), the activity change, negative = inhibition is reported as “inactive”.
With CCN(CC(=O)Nc1c(C(=O)OC)[nH]c2ccc(Cl)cc12)c1ccc2c(c1)OCO2 the activity change, negative = inhibition was inconclusive: -11.3%.
For CCn1c(=N)n(CC(=O)c2cccc(OC)c2)c2ccccc21, the activity change, negative = inhibition was inconclusive: 19.9%.
With CCCOC(=O)C1=C(C)NC2=C(C(=O)CCC2)C1c1cccc(OC)c1OC (configuration not stated) the activity change, negative = inhibition was inconclusive: 25%.
For COc1ccc(N2CCCn3c2nc2c3c(=O)n(Cc3ccccc3F)c(=O)n2C)c(OC)c1, the activity change, negative = inhibition was inconclusive: -20%.
With CCN(C(=O)COc1cc(=O)n(CC)c2ccccc12)c1cccc(Cl)c1 the activity change, negative = inhibition was inconclusive: 20.4%.
With CCn1nc(NC(=O)c2ccccn2)c2cc3cccc(C)c3nc21 the Potency was inconclusive: 1.26 µM [rising, partial curve].
With COc1ccc(-c2ccc(=N)n(CCCC(=O)O)n2)cc1 the activity change, negative = inhibition was inconclusive: -15.2%.
